The whole screen tested about 310,000 compounds, of which about 14,000 (4.5%) showed an effect of 50% or more. The effect is printed as a negative number. Some of the results follow.

Results on 22 compounds are retold here after paper PMC4336329 (PLoS ONE, 2015).
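Note: peak tail current of the secondary pulse compared with the same well before compound.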

This experiment deals with human ether-à-go-go-related gene (hERG) potassium channel (human, UniProt Q12809). Put plainly: primary screen, population patch clamp on CHO cells stably expressing hERG.
Sequence of human ether-à-go-go-related gene (hERG) potassium channel (Q12809 whole entry, looked up): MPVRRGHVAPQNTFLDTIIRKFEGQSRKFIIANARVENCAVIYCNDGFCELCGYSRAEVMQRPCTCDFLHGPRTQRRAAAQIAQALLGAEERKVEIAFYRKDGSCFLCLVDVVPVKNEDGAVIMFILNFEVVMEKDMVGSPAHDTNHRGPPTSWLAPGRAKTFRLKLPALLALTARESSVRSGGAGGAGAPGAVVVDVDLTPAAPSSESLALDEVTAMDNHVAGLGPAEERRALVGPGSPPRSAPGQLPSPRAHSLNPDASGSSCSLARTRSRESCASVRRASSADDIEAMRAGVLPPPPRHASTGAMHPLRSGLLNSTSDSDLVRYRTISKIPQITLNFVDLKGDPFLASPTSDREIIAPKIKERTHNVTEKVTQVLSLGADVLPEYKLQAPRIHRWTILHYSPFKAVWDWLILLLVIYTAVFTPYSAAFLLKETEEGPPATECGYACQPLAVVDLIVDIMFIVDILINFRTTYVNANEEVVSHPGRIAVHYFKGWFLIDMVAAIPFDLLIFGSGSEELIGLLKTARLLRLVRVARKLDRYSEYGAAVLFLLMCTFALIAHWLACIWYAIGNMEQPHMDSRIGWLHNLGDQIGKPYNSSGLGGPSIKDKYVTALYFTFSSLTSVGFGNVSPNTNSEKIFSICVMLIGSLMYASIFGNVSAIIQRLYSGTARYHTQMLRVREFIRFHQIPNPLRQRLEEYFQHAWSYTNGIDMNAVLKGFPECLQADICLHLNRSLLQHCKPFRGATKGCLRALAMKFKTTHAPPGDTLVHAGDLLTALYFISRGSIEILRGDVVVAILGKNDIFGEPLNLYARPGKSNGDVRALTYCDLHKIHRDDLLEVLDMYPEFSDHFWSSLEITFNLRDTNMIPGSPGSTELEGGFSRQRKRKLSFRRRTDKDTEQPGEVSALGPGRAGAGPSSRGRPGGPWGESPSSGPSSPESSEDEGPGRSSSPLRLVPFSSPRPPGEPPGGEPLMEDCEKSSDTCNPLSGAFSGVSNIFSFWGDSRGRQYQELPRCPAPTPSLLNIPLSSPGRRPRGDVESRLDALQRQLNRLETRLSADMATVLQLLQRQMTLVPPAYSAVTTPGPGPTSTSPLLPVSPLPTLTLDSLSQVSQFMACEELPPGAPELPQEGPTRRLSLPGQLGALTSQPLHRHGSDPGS
In the case of `CC(NC(=O)CSc1nnc(CC(=O)Nc2ccc(Cl)c(Cl)c2)n1C)c1ccccc1` (stereo not shown), the “hERG current change (%, negative = inhibition) at 10uM” value was determined as 4.55%. Regarding `CCOC(=O)C1CCCN(S(=O)(=O)c2cc3c4c(c2)CCC(=O)N4CCC3)C1` (stereo not shown), the “hERG current change (%, negative = inhibition) at 10uM” value is -8.46%.

Regarding `O=C(CNC(=O)c1ccccc1)Oc1ccc([N+](=O)[O-])cc1`, the “hERG current change (%, negative = inhibition) at 10uM” value is given as 6.91%. `Cc1nc2cc(C(=O)OCC(=O)NC3CCS(=O)(=O)C3)ccc2n1-c1ccccc1` (stereo not shown): the “hERG current change (%, negative = inhibition) at 10uM” value is given as 0.511%. Regarding `CSc1ccc(-c2nc(O)c3cnccn23)cc1`, the “hERG current change (%, negative = inhibition) at 10uM” value is on record as 16.3%. Consider `CCCCc1cc(=O)oc2cc(OCC(=O)Nc3ccccn3)ccc12`, for which the “hERG current change (%, negative = inhibition) at 10uM” value came to 4.33%.

In the case of `CN(CC(=O)Nc1ccccc1N1CCCC1)S(=O)(=O)c1ccc(F)cc1`, the “hERG current change (%, negative = inhibition) at 10uM” value is -0.805%. For `COc1ccccc1CNC(=O)CCCNS(=O)(=O)c1cccc2nsnc12`, the “hERG current change (%, negative = inhibition) at 10uM” value is recorded as -1.57%.

As to `O=C(Nc1cc(S(=O)(=O)N2CCOCC2)ccc1Cl)c1cc2ccccc2o1`, the “hERG current change (%, negative = inhibition) at 10uM” value was -18.5%. Turning to `O=C(O)c1cc(O)c2c(c1)[C@@H]([C@H]1c3cc(C(=O)O)cc(O)c3C(=O)c3c(O[C@@H]4O[C@H](CO)[C@@H](O)[C@H](O)[C@H]4O)cccc31)c1cccc(OC3O[C@H](CO)[C@@H](O)[C@H](O)[C@H]3O)c1C2=O` (stereo partly shown), the “hERG current change (%, negative = inhibition) at 10uM” value came to 2.71%.

For the compound `Cc1cccc(N(C)C(=O)CN2C(=O)COc3ccc(S(=O)(=O)N4CCCCCC4)cc32)c1`, the “hERG current change (%, negative = inhibition) at 10uM” value is given as -12.7%. For the compound `Cc1ccc(-c2c(C)n([O-])c3c([n+]2=O)CCC3)cc1`, the “hERG current change (%, negative = inhibition) at 10uM” value was -8.72%. Take `CCCCn1c(=O)c(C=Nc2cccnc2Cl)c(O)n(CCCCl)c1=O`: the “hERG current change (%, negative = inhibition) at 10uM” value is -15.9%. Turning to `Cc1nc2c3ccccc3nc(NNC(=O)CCC(=O)N3CCCC(C)C3)n2n1` (stereo not shown), the “hERG current change (%, negative = inhibition) at 10uM” value is recorded as 5.49%. With `CCCn1nnc(NC(=O)c2ccc(-c3cccc(Cl)c3)o2)n1`, the “hERG current change (%, negative = inhibition) at 10uM” value is -55.3%. The result for `CCCNC(=O)COC(=O)c1c2c(nc3ccccc13)CCC2` reads -11.5%; that for `CC1CN(C(=O)c2c(Br)cnn2C)CC(C)O1` (stereo not shown), 0.856%. Consider `CCN(CC)S(=O)(=O)c1cccc(C(=O)N[C@H](C(=O)NNC(=O)c2ccccc2)C(C)C)c1`, for which the “hERG current change (%, negative = inhibition) at 10uM” value is recorded as 5.65%.

In the case of `O=C(NCCc1cccs1)C1CC(c2c(Cl)cccc2Cl)=NO1` (stereo not shown), the “hERG current change (%, negative = inhibition) at 10uM” value is given as -19.8%. Take `COc1ccccc1Nc1nc(N)nc(-c2oc3ccccc3c2C)n1`: the “hERG current change (%, negative = inhibition) at 10uM” value is given as -5.69%. In the case of `CCOc1ccccc1NC1=C(Cl)C(=O)N(Cc2ccccc2)C1=O`, the “hERG current change (%, negative = inhibition) at 10uM” value was -6.59%. As for `Cc1ccc(C)c(-n2c(-c3csc(C)c3)n[nH]c2=S)c1`, the “hERG current change (%, negative = inhibition) at 10uM” value turned out to be 17.4%.
